Assay results from the RNAGym collection of RNA variant scans (doi:10.1073/pnas.2313332121).
Variants at the background level are over-represented here.

B1: TPR 5TU (parent)
chain: GGAUCUUCUCGAUCUAACAAAAAAGACAAAUCUGCCACAAAGCUUGAGAGCAUCUUCGGAUGCAGAGGCGGCAGCCUUCGGUGGCGCGAUAGCGCCAACGUUCUCAACUAUGACACGCAAAACGCGUGCUCCGUUGAAUGGAGUUUAUCAUG

Variants of: B1
Assay: polymerase ribozyme fitness, log enrichment relative to wild type (log ratio); higher = more active; in vitro selection for triplet polymerase activity
In short: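 Streptavidin-bead capture of gel-excised extended constructs, followed by RT-PCR, closed a single triplicate in vitro selection round. That round began by annealing PCR-built, transcribed mutant libraries of each subunit of a heterodimeric triplet polymerase ribozyme with a biotinylated primer, the partner subunit and triplets, then incubating them frozen at −7 °C. After Illumina sequencing of inputs and outputs, genotypes needed ≥10 input reads and ≥1 read per output. Fitness is the base-2 logarithm of genotype enrichment over wild-type enrichment, using inverse-variance-weighted replicate averages.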

Row | Variant | polymerase ribozyme fitness (log ratio)
1 | GGAUCUUCUAGAUCUAACAAAAAAGAGAAAUCUGCCACAAAGCUUGAGAGCAUCUUCGGAUGCAGAGGCGGCAGCCCUCGGUAGCGCGAUAGCGCCAACGUUCUCAACUAUGACACGCAAAACGCGUGCUCCGUUGAAUGGAGUUUAUCAUG [C10A C27G U77C G83A] | ≤ -4.2
2 | GGAUCUUCUAGAUCUAACAAAAAAGACAAAUCUGCCACAAAGCUUGAGAGCAUCUUCGGAUGCAGAGGCGGCAGCCUUCGGUGGCGCGAUAGCGCUAACGUUCUCAACUAUGACACGCAAAACGCGUGCUCCGUUGAAUGGAAUUUAUCAUG [C10A C96U G143A] | ≤ -4.2
3 | GGAUCUUCUAGAUCUAACAAAAAAGACAAAUGUGCCAUAAAGCUUGAGAGCAUCUGCGGGUGCAGAGGCGGCAGCCUUCGGUGGCGCGAUAGCGACAACGUUCUCAACUAUGACACGCAAAACGCGUGCUUCGUUGAAUUGAGUUUAUCAUG [C10A C32G C38U U56G A60G C95A C131U G140U] | -4.19
4 | GGAUCUUCUAGAUCUAACAAAAAAGACAAAUCUGCCACAAAGCUUGAGAGCAUCUUCGGAUGCAGAGGGGGCAGCCUUCGGUGGCGCGAUAGCGCCAACGUUCUCAACUAUGACACGCAUACCGCGUGCUACGUUGAAUGGAGUUUAUCAUG [C10A C69G A120U A122C C131A] | ≤ -4.2
5 | GGAUCUUCUAGAUCUAACAAAAAAGAGAAAUCUGCCACAAAGCUUAAGAGCAUCUUCGGAUGCAGAGGCGGCAGACUUCGGUGGCGCGAUAGCGCAAACGUUCUCAACUAUGACACGCAAAACGCGUGCUCCGUUGAAUGGAGUUUAUCAUG [C10A C27G G46A C75A C96A] | ≤ -4.2
6 | GGAUCUUCUAGAUCUAACAAAAAAGAAAAAUCUGCCACAAAGCUUGAGAGCAUCUUCGGAUGCAGAGGCGGCAGCCUUCGGUGGCUCGAUAGCGCCAACGGUUUCAACUAUGACACGCAAAACGUGUGCUUCGUUGAAUGUAGUUUAUCAUG [C10A C27A G86U U101G C103U C125U C131U G141U] | ≤ -4.2
7 | GGAUCUUCUAGAUCUAACAAAAAAGAGAACACUGCCACAAAGCUUGAGAGCAUCUUCGGAUGCAGAGGCGGCAGCCGUCGGUGUCGCGAUAGCGCCAACGUUCUCAACUAUGACACGCAAAACGCGUGCUCCGUUGAAUGGAGUUUGUCAUG [C10A C27G A30C U31A U77G G84U A147G] | ≤ -4.2
8 | GGAUCUUCUAGAUCUAACAAAAAAGACAAAUCUGCCACAAAGCUUGAGAGCCUCUUCGGAUGCAUAGGUGGCAGCCUUCGGUGGCGCGAUAGCGCCAAUGUUAUCAACUAUGACACGCAAAACGCGUGCUCCGUUGAAUGGAGUUUAUCAUG [C10A A52C G65U C69U C99U C103A] | ≤ -4.2
9 | GGAUCUUCUAGAUCUAACAAAAAAGACAAAUCUGCCACAAAGCUUGAGAGCAUCUUCGGAUGCAGAGGUGGCAGCCUUCGGUGGCGCGAUAGCGCCAACGUUCUCAACUAUGACACGCAAAACGCGUGCUCCGUUGAAUGGAGUUUAUCAUG [C10A C69U] | ≤ -4.2
10 | GGAUCUUCUAGAUCUAACAAAAAAGACAAAUCUGCCACAAAGCUUGAGAGCAUCUUCGGAUGCAGAGGCGGCAGGCUUCGGUGGUGCGAUAGCGCCAACGUUCUCAACUAUGACACGCAAAACGCGUGCUCCGUUGAAUUGAGUUUAUCAUG [C10A C75G C85U G140U] | ≤ -4.2
11 | GGAUCUUCUAGAUCUAACAAAAAAGACAAAUCUGCCACAAAGCUUGAGAGCGUCUUCGGAUGCAGAGGCGGCAGCCUUCGGUGGCGCGAUAGCCCCAACGUUCUCAACUAUGACACGCAAAACGCGUGCUCCGUUGAAUGGAGUUUAUCCUG [C10A A52G G94C A150C] | ≤ -4.2
12 | GGAUCUUCUAGAUCUAACAAAAAAGACAAAUCUGCCACAAACCUUGAGAGCAUCUUCGGAUGCAGCGGCGGCAGCCUUCGGUGGCGCGAUAGCUCCAACCUUCUCAACUAUGACACGCAAAACGCGUGCUCCAUUGACUGGAGUUUAUCAUG [C10A G42C A66C G94U G100C G133A A138C] | ≤ -4.2
13 | GGAUCUUCUAGAUCUAACAAAAAAGACAAAUCUGCCAUAAAGCUGGAGAGCAUCUUCGGAGGCAGAGGCAGCAGCCUGCGGUGGGGCGAUAGCGCCAACGUUCUCAACUAUGACACGCAAAACGCGUGCUCCGUUGAAUGGAGUUUAUCAUG [C10A C38U U45G U61G G70A U78G C85G] | ≤ -4.2
14 | GGAUCUUCUAGAUCUAACAAAAAAGAUAAAUCUGCCACAACGCUUGAGAGCAUCUUAGGAUGCAGAGGCGGCAGCCUUCCGUGGAGCGAUAGCGCCAACGUUCUCAACUAUGACACGCAAGAAGCGUGCUCCGUUGAAUGGAGUUUAUCAUG [C10A C27U A41C C57A G80C C85A A121G C123A] | ≤ -4.2
15 | GGAUCUUCUAGAUCUAACAAAAAAGACAAAUCUGCCACAAAGCUUGAGAGCAUCUUCGGAUGCAGAGGCGGAAGCCUUCGGUGGCGCGAUAGUGCCAACGUUCUCAACUAUGACACGCAAAACGCGUGCUCCGUUGAAUGGAGUUUAUCAUG [C10A C72A C93U] | ≤ -4.2
16 | GGAUCUUCUAGAUCUAACAAAAAAGACAAAUCUGCCACAAAGCUUGAGAGCAUCUUCGGAUGCAGUGGCGGCAGCCUUCGAUGGCGCGAUAGCUCCAACGUUCUCAACUAUGACACGCAAAACGCGUGCUCCGAUGAAUGGAGUUUAUCAUG [C10A A66U G81A G94U U134A] | ≤ -4.2
17 | GGAUCUUCUAGAUGUAACUAAAAAGACAACUCUGCCACAAAGCUUGAGAGCAUCUUCGGAUGCAGAGGCGGCAGCCUUCGGUGGCGCGAUAGUGCCAACGUUCUCAACUAUGACACGCAAAACGCGUGCUCCGUUGAAUGGAGUUUAUCAUG [C10A C14G A19U A30C C93U] | ≤ -4.2
18 | GGAUCUUCUAGAUCUAACAAAAAAGACAAAUCUGCCACAAAGCUUGAGAGCAUCUUCGGAUGCAGCGGCGGCAGCCUUCGGUGGCGCUAUAGCGCCAACGUUCUCAACUAUGACACGCAAAACGCGUGCUCCGUUGUACGGAGUUUAUCAUG [C10A A66C G88U A137U U139C] | ≤ -4.2
19 | GGAUCUUCUAGAUCUAACAAAAAAGACAAAUCUGCCACAAAGCUUGAGAGCAUCUUCGGAUGCAGAGGCGGCAGCCUUCGGUGGUGCGAUUGCGCCAACGUUUUCAACUAUGACACGCAAAACGCGUGCUCCGUUGAAUGGAGUUUAUCAUG [C10A C85U A91U C103U] | ≤ -4.2
